Where “and” joins values, the source holds several entries; their conditions need not be identical. Equal values may be shown once. The list shows a part of the results. Shown are side measurements of this screen, not its main read-out; they come without a call.
Assays:
Test in all cases: Primary Screen for Target Class Profiling of Small Molecule Inhibitors of Methyltransferases
[1] = target: Glycine N-methyltransferase (Homo sapiens) (UniProt Q14749); details: purified enzyme, MTase-Glo SAH luminescence; measured here: GNMT inhibition; at 40 µM; stronger effect = lower value
Summary of the method: (§1)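 Each enzyme was reacted with SAM and its substrate, with compounds tested once at 40 uM; SAH formed was read by MTase-Glo luminescence.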

[2] = target: Guanidinoacetate N-methyltransferase (Homo sapiens) (UniProt Q14353); details: purified enzyme, MTase-Glo SAH luminescence; measured here: GAMT inhibition; at 40 µM; stronger effect = lower value
Summary of the method: as §1

[3] = target: Histamine N-methyltransferase (Homo sapiens) (UniProt P50135); details: purified enzyme, MTase-Glo SAH luminescence; measured here: HNMT inhibition; at 40 µM; stronger effect = lower value
Summary of the method: as §1

[4] = target: Nicotinamide N-methyltransferase (Homo sapiens) (UniProt P40261); details: purified enzyme, MTase-Glo SAH luminescence; measured here: NNMT inhibition; at 40 µM; stronger effect = lower value
Summary of the method: as §1

[5] = target: Phenylethanolamine N-methyltransferase (Homo sapiens) (UniProt P11086); details: purified enzyme, MTase-Glo SAH luminescence; measured here: PNMT inhibition; at 40 µM; stronger effect = lower value
Summary of the method: as §1
% is scaled to controls: 0 for no effect and ±100 for the full control effect.

Structure (SMILES)	activity change, negative = inhibition [1]	activity change, negative = inhibition [2]	activity change, negative = inhibition [3]	activity change, negative = inhibition [4]	activity change, negative = inhibition [5]
Cc1nn(C)c(C)c1CCN(C)Cc1ccc(=O)n(C)c1	-2.7%	1.28%	1.4%	0.663%	-0.629%
O=C(O)CCCCCC[C@H]1C(=O)NC(=O)N1CC[C@@H](O)C1CCCCC1	-7.14%	-21.3%	9.83%	-22.5%	-3.02%
COC(=O)Cc1cc2c(c([N+](=O)[O-])c1)N(C(=O)CC[C@H](N)C(=O)O)CC2	-4.02%	-6.57%	6.36%	-14.5%	-0.46%
CC1(C)C(=O)N(CCOc2ccccc2)[C@H]2CN(CC3CCOC3)C[C@H]2[S+]1(=O)[O-] (some centres undefined)	-2.51%	-0.746%	-0.393%	-2.59%	0.013%
COc1ccc(N2CCN(C(=O)CCc3nnc4n(Cc5ccccc5)c(=O)c5ccccc5n34)CC2)cc1	-15.5%	-2.66%	-12.1%	-13.3%	-14.9%
COCCCNC(=O)C1(C)Cn2nc(-c3ccccc3)cc2C(=O)N1c1cc(C)ccc1C (centres undefined)	1.79%	0%	3.6%	8.74%	-0.238%
CSCc1noc(CN2CCCC(CO)(CC=C(C)C)C2)n1 (centres undefined)	-1.56%	-0.544%	0.209%	-7.96%	-1.28%
CCOc1ccccc1CNC(=O)C(CC)n1ccc2cc(S(=O)(=O)N3CCCCC3)ccc21 (centres undefined)	6.18%	0.312%	3.66%	2.84%	3.08%
COc1ccc(C(=O)N2CCC3(C2)C(=O)Nc2ccccc23)cc1 (centres undefined)	-5.06%	0.871%	0.961%	-5.5%	-1.73%
Cc1cccc(CNC(=O)c2ncn3c2C(=O)N(C2CC2)C(C)(C(=O)NCc2cccc(C)c2)C3)c1 (centres undefined)	3.03%	2.15%	7.52%	7.35%	10.2%
O=C(CC1NCCC[C@H]1O)Cn1cnc2cc(Br)c(Cl)cc2c1=O (some centres undefined)	-4.74%	-22.9%	-6.73%	-27.2%	-6.62%
COc1ccc2cc(-c3cc(-c4cc(Cl)cc(Cl)c4)nn3C(C)c3ccc(C(=O)NCCC(=O)O)cc3)ccc2c1 (centres undefined)	-1.06%	19.9%	9.76%	-3.41%	7.8%
Cc1ccc(C(=O)N2CCC(Cc3noc(C4CCOCC4)n3)C2)s1 (centres undefined)	-4.42%	-5.86%	-3.86%	-12.4%	-6.82%
Cc1noc(C)c1-c1cc(O)cc(C(O)c2ccccc2)c1 (centres undefined)	-0.57%	2.91%	0.719%	-15.2%	-2.71%
Cc1cc2c(cc3n2CC(C)(C(=O)NC2CCCCC2)N(Cc2ccco2)C3=O)o1 (centres undefined)	-9.4%	0.771%	-6.68%	-6.71%	-4.16%
Cc1ccccc1CCNC(=O)c1cc2n(n1)CC(C)(C(=O)NCc1ccc(F)cc1)N(C)C2=O (centres undefined)	-2.08%	3.09%	-8.23%	0.14%	-2.76%
O=C(O)Cc1ccc(O)c(O)c1	-60.8%	12.2%	10.1%	-4.46%	3.4%
NC(=O)c1cccc2[nH]c(-c3ccc([C@@H]4CCCN4)cc3F)nc12	-21.4%	-31% and -23.9%	-67.2%	-18.3% and -61% and -56%	21.1% and -29.5% and -25.2%
O=c1c2ccccc2n2c(SCc3cccc(F)c3)nnc2n1CCc1ccccc1	-8.58%	-0.741%	-4.45%	-10.3%	-4.48%
Cc1ccc(-n2cccc2CC(=O)N2CCCC2)cc1	-4.68%	-4.21%	-1.47%	-2.38%	-0.738%

Structure (SMILES)	activity change, negative = inhibition [1]	activity change, negative = inhibition [2]	activity change, negative = inhibition [3]	activity change, negative = inhibition [4]	activity change, negative = inhibition [5]
CCN1C(=O)c2cc(C(=O)N3CCN(c4ccccc4)CC3)nn2CC1(C)C(=O)NC1CCCC1 (centres undefined)	1.03%	3.46%	-0.913%	1.92%	-0.682%
O=C(c1cnc(C2CC2)nc1)N1CCC2(CCNCC2CO)CC1 (centres undefined)	-1.67%	-4.95%	-8.45%	-19.6%	-13.6%
Cc1cn2cc(CC(=O)N3CCC4(CC3)CN(Cc3ccc(-n5nccn5)cc3Cl)C4)nc2s1	-7.56%	5.98%	5.75%	-23.3%	-14.9%
Cc1ccc(CN2CCN(Cc3ccc(=O)n(C)c3)CC2)cc1	-5.44%	-3.25%	-1.41%	-5.64%	-19%
C=CCOc1ccccc1CNc1ccc2[nH]c(=O)[nH]c2c1	-13.3%	4.1%	-13.2%	-13.5%	-13.1%
COc1ccc(N2CCN(C(=O)CCCc3nnc4n5nc(-c6ccccc6)nc5c5ccccc5n34)CC2)cc1	-12.3%	0.313%	-3.09%	-5.91%	-6.75%
C=CC(C)(O)CCC1C(C)(O)CCC2C(C)(C)CCCC21C (centres undefined)	1.82%		9.84%		
O=C(O)c1cccc(CN2C(=O)/C(=C(\c3ccccc3)c3ccc(Cl)cc3)c3ccccc32)c1	-52%	7.87%	1.59%	-63.7%	-8.58%
Cc1ccc(NC(=O)Cn2c(=O)oc3cc(S(=O)(=O)N4CC(C)CC(C)C4)ccc32)c(C)c1 (centres undefined)	-5.06%	-20.1%	5.38%	7.88%	-1.29%
CN1C(=O)CCC2(CNC(=O)CCc3c[nH]c4ccccc34)CCC=C12 (centres undefined)	-3.36%	-0.65%	0.078%	-4.08%	-3.7%
Cc1ccc(-c2n[nH]n3c2nc(=O)c2ccc(C(=O)N4CCN(c5ccccc5F)CC4)cc23)cc1	-4.63%	0.202%	2.41%	0.903%	-1.39%
N#Cc1ccc(-n2nc(C3CCOCC3)nc2C2(C(N)=O)CC2)cc1	-1.13%	2.32%	2.27%	-0.478%	15.4%
Cc1ccc(NC(=O)CSc2nnc3n(CC(C)C)c(=O)c4ccccc4n23)c(C)c1	-1.85%	3.45%	5.76%	-4.87%	2.28%
CCN1CCN(CCNC(=O)CN2CCCc3nc(C4CC4)ncc3C2=O)CC1	-3.08%	-6.13%	-21.4%	-6.81%	-6.47%
CC(C)=CC(=O)N1C[C@@H](NC(=O)NC2CCCCC2)C[C@H]1C(=O)N[C@H](Cc1c[nH]c2ccccc12)C(N)=O	-6%	-6.67%	-1.54%	-11.5%	-19.7%
O=S(=O)(c1ccccc1Cl)N1CCC(c2noc(COCc3ccccc3)n2)CC1	-6.7%	-8.05%	-4.51%	-14.7%	-15%
CC(=O)O[C@@H]1[C@@H](CO)O[C@@](CO)(O[C@H]2O[C@H](COC(=O)/C=C/c3ccccc3)[C@@H](O)[C@H](O)[C@H]2O)[C@H]1O	-0.995%	-3.37%	-6.41%	-12.2%	-0.658%
O=C(NCc1ccc(Cl)s1)C1CCCN(C2CCN(C(=O)C3CC3)CC2)C1 (centres undefined)	-8.53%	-12.1%	-8.95%	-14.5%	-12.7%
CCc1ccccc1NC(=O)CSc1nnc2[nH]c(=O)c(C)nn12	13.2%	0%	9.07%	0.558%	3.04%
O=C([C@H]1C[C@H](Oc2cccnc2)CN1C(=O)Nc1ccccc1)N1CCOCC1	-2.27%	-1.72%	-0.555%	-1.12%	3.59%

Structure (SMILES)	activity change, negative = inhibition [1]	activity change, negative = inhibition [2]	activity change, negative = inhibition [3]	activity change, negative = inhibition [4]	activity change, negative = inhibition [5]
C=CCNC(=O)N[C@H]1C[C@@H](C(=O)N[C@H](Cc2c[nH]c3ccccc23)C(N)=O)N(C(=O)c2cccn2C)C1	-1.23%	2.26%	-1.33%	4.03%	4.5%
COC(=O)[C@H](OC(C)=O)[C@H]1C(C)(C)C(=O)[C@H]2CC3=C4CC(=O)O[C@@H](c5ccoc5)[C@]4(C)CCC3[C@@]1(C)C2=O (some centres undefined)	2.75%	-2.26%	7.87%	-12.3%	1.49%
CCCn1c(=O)c2ccc(Cl)cc2n2c(=O)n(CC(=O)c3cc(C)ccc3C)nc12	-3.89%	-1.74%	0.224%	-2.52%	-1.42%
Cc1cccc(S(=O)(=O)N2CCCC(Cn3cc(CO)nn3)C2)c1 (centres undefined)	-3.35%	-6.41%	1.8%	-3.01%	-1.51%
CC1(C(=O)NC2CCCCCCC2)Cc2ccccc2C(=O)N1CCc1ccccc1 (centres undefined)	-4.42%	0%	4.29%	3.4%	-1.57%
COCc1ccccc1-c1cn(C)c(=O)n2cc(COc3ccc(Cl)cc3)nc12	-4.28%	-1.97%	-0.262%	-4.99%	-3.28%
O=C(C1CCC(=O)N(C2CCCC2)C1)N1CCN(c2nccs2)CC1 (centres undefined)	-1.78%	-1.31%	0.511%	-8.06%	-1.52%
O=C(CCc1nnc2n(Cc3ccccc3Cl)c(=O)c3ccccc3n12)N1CCC(N2CCCCC2)CC1	-3.95%	4.8%	-35.6%	11.2%	2.26%
COc1ccc2cc3n(c2c1)CC(C)(C(=O)NC1CCCCC1)N(Cc1ccccc1OC)C3=O (centres undefined)	1.53%	4.12%	5.74%	-0.084%	-1.37%
CCCn1c(=O)c2ccc(C(=O)NC(C)C)cc2n2c(SCC(=O)c3ccc(C)cc3)nnc12	1.27%	3.98%	-0.963%	-0.693%	1.37%
Cc1cc(C)n(CCC(=O)NCC2CCN(c3cc(-c4ccc(Cl)cc4)[nH]n3)CC2)n1	-6.61%	3.89%	1.78%	-9.19%	14.2%
CCOC(=O)C(Cc1c[nH]c2ccccc12)NC(=O)c1ccccc1Cl (centres undefined)	-3.08%	1.19%	1.74%	0.412%	-4.37%
CC1CCCCN1C(=O)Cn1c(=O)oc2cc(S(=O)(=O)N3CCCCC3)ccc21 (centres undefined)	5.01%	1.32%	8.54%	13.2%	2.56%
NC(=O)C(CCC(F)(F)F)N(Cc1ccc(-c2ncon2)cc1F)S(=O)(=O)c1ccc(Cl)cc1 (centres undefined)	3.5%		3.66%		
COc1cccc([S+](=O)([O-])N2CCC3(C2)C(=NC2CCCCC2)NC(=O)N3c2cc(F)cc(F)c2)c1 (centres undefined)	-1.44%	-4.32%	-2.87%	-4.01%	-12.8%
CC(C)Cn1c(=O)c2ccc(C(=O)NC(C)C)cc2n2c(=O)n(CC(=O)NCc3ccccc3)nc12	2.36%	0%	3.16%	0.184%	2.56%
O=C(NCCN1CCOCC1)c1cc2c(Oc3ccc(NC(=O)C4(C(=O)Nc5ccc(F)cc5)CC4)cc3)ccnc2[nH]1	-1.92%	5.1%	-6.47%	-19.9%	-5.57%
Cc1nccn1CC1CCc2c(c3ccccc3n2C)C1=O (centres undefined)	-11.9%	-26.1%	1.42%	-29.1%	-5.61%
CN1C(=O)c2cc(C(=O)NCc3ccccc3)nn2CC1(C)C(=O)NC1CCCCC1 (centres undefined)	3.47%	4.5%	0.79%	5.06%	2.87%
Cn1cccc1C(=O)N[C@H]1C[C@@H](C(=O)O)N(C(=O)CSCC(=O)N2C[C@@H](NC(=O)c3cccn3C)C[C@H]2C(=O)O)C1	-7.04%	-9.38%	-4.82%	-12.2%	29.8%
